Data on 2 substances can be found in paper PMC10432808.

By UniProt entry, the sequences of proteins in these tests, tags left out. Where a name states a change or a piece, a line headed by the entry shows the natural chain unless it says otherwise. Chains listed by the source or under a name are the forms on record and can include a tag or linker. Residues count along the entry.
UniProt P06730: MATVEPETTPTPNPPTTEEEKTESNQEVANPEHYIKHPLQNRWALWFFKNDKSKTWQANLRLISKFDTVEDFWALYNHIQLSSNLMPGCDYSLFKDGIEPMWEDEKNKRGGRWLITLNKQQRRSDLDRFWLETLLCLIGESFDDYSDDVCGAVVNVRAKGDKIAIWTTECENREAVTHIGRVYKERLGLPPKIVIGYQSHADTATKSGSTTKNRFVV
UniProt D3ZYS7: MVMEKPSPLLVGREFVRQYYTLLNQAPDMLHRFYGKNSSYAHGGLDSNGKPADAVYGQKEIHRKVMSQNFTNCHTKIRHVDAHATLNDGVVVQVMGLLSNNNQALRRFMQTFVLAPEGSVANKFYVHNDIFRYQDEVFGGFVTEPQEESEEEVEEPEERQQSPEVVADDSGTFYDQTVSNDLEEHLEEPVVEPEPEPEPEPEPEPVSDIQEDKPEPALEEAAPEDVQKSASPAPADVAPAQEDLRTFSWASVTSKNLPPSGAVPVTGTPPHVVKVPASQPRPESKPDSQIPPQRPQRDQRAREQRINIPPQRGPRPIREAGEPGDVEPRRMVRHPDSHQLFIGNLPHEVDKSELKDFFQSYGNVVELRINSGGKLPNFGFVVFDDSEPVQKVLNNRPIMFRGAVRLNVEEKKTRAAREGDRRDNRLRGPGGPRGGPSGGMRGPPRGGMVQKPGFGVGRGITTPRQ
FLAG-tagged NTF2+AcidRich+PxxP of rat G3BP1: residues 1-340 of D3ZYS7
FLAG-tagged NTF2-like domain of rat G3BP1: residues 1-140 of D3ZYS7
FLAG-tagged AcidRich+PxxP of rat G3BP1: residues 141-340 of D3ZYS7
UniProt Q13283: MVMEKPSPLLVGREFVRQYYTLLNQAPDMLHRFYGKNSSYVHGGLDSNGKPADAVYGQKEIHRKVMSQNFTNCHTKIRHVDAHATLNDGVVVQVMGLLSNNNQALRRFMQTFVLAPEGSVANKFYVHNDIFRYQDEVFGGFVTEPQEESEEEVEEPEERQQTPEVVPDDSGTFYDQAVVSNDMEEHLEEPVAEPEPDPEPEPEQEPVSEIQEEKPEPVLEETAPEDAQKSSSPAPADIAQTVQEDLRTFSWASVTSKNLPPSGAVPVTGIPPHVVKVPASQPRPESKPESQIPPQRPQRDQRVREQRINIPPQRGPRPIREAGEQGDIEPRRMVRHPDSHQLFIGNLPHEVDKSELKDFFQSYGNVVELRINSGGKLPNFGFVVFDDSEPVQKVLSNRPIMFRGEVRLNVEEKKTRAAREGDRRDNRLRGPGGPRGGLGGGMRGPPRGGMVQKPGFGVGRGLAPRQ

These are yes or no findings as the source states them, for the method shown. For some assays here: Binding seen in cells or lysates may run through a third protein. Some results given as binding are weak or reduced against the parent protein; the word gives no strength.

The target in experiment [1] is GST-eIF4E, purified recombinant protein (UniProt P06730). Nature of the experiment: pull-down; His-G3BP1 (2 μg) and GST-eIF4E (4 μg) mixed in Tris buffer with proteinase inhibitors overnight at 4 °C; GSH beads 2 h at 4 °C; Western blot; cell-free; both purified. (A western blot detects proteins with antibodies after separation by electrophoresis.)
The target in experiment [2] is FLAG-tagged NTF2+AcidRich+PxxP of rat G3BP1 (rat) (UniProt D3ZYS7). As to the kind of experiment: co-IP; HEK293T cells transfected with FLAG-tagged G3BP1 constructs; lysate (1 mg) with FLAG beads 2 h at 4 °C; Western blot for endogenous eIF4E.
For experiment [3], the target named is FLAG-tagged NTF2-like domain of rat G3BP1 (rat) (UniProt D3ZYS7). The description is as above.
Experiment [4] addresses FLAG-tagged AcidRich+PxxP of rat G3BP1 (rat) (UniProt D3ZYS7). The experiment is described as above.
In experiment [5] the target is FLAG-tagged full-length rat G3BP1 (rat) (UniProt D3ZYS7). The experiment is described as above.

Regarding “His-G3BP1, purified recombinant protein (from UniProt Q13283 1-466)”, the binding entry in experiment [1] is “binds”.
In the case of “eIF4E, endogenous in HEK293T cells (from UniProt P06730 1-217)”, the binding result in experiment [2] was “no binding”; in experiment [3], “binds”; in experiment [4], “no binding”; in experiment [5], “binds”.
